Reference: PubChem BioAssay AID504333 (National Center for Advancing Translational Sciences (NCATS), 2011)
The campaign covered roughly 360,000 compounds. About 16,000 (4.4%) were called active. Inconclusive results, whose numbers are uncertain, are shown with a selection of clear calls. The call rests on the fitted dose curve; in most records, active means well fitted inhibition curve with a large enough effect; inconclusive means small, poorly fitted or top-dose-only effect; inactive means no such curve, though single readings can be large or run the other way. Potencies beside an inconclusive call are fits to weak or partial responses and may not hold up.

Each molecule was assayed against Bromodomain adjacent to zinc finger domain protein 2B (Homo sapiens) (UniProt Q9UIF8) (assay: qHTS Assay for Inhibitors of BAZ2B). Conditions: AlphaScreen BAZ2B-H3K14Ac peptide displacement; activity change, negative = inhibition: at 114 µM (top of the series).
Summary of the method: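 AlphaScreen luminescence quantifies BAZ2B engagement of H3K14Ac peptide; the protein and biotinylated peptide are both at 50 nM final, buffer PBS pH 7.4 with 0.01% Tween-20, all steps at room temperature.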
Further: nearly all actives have a fitted effect of over 60% in size.
On the % scale 0 is the no-effect control and ±100 the full control effect; potency means the concentration at half of the fitted maximal effect; tags describe the fitted curve by direction and shape.

Chain of UniProt Q9UIF8 (Q9UIF8 whole entry, looked up, the tested form may be a part): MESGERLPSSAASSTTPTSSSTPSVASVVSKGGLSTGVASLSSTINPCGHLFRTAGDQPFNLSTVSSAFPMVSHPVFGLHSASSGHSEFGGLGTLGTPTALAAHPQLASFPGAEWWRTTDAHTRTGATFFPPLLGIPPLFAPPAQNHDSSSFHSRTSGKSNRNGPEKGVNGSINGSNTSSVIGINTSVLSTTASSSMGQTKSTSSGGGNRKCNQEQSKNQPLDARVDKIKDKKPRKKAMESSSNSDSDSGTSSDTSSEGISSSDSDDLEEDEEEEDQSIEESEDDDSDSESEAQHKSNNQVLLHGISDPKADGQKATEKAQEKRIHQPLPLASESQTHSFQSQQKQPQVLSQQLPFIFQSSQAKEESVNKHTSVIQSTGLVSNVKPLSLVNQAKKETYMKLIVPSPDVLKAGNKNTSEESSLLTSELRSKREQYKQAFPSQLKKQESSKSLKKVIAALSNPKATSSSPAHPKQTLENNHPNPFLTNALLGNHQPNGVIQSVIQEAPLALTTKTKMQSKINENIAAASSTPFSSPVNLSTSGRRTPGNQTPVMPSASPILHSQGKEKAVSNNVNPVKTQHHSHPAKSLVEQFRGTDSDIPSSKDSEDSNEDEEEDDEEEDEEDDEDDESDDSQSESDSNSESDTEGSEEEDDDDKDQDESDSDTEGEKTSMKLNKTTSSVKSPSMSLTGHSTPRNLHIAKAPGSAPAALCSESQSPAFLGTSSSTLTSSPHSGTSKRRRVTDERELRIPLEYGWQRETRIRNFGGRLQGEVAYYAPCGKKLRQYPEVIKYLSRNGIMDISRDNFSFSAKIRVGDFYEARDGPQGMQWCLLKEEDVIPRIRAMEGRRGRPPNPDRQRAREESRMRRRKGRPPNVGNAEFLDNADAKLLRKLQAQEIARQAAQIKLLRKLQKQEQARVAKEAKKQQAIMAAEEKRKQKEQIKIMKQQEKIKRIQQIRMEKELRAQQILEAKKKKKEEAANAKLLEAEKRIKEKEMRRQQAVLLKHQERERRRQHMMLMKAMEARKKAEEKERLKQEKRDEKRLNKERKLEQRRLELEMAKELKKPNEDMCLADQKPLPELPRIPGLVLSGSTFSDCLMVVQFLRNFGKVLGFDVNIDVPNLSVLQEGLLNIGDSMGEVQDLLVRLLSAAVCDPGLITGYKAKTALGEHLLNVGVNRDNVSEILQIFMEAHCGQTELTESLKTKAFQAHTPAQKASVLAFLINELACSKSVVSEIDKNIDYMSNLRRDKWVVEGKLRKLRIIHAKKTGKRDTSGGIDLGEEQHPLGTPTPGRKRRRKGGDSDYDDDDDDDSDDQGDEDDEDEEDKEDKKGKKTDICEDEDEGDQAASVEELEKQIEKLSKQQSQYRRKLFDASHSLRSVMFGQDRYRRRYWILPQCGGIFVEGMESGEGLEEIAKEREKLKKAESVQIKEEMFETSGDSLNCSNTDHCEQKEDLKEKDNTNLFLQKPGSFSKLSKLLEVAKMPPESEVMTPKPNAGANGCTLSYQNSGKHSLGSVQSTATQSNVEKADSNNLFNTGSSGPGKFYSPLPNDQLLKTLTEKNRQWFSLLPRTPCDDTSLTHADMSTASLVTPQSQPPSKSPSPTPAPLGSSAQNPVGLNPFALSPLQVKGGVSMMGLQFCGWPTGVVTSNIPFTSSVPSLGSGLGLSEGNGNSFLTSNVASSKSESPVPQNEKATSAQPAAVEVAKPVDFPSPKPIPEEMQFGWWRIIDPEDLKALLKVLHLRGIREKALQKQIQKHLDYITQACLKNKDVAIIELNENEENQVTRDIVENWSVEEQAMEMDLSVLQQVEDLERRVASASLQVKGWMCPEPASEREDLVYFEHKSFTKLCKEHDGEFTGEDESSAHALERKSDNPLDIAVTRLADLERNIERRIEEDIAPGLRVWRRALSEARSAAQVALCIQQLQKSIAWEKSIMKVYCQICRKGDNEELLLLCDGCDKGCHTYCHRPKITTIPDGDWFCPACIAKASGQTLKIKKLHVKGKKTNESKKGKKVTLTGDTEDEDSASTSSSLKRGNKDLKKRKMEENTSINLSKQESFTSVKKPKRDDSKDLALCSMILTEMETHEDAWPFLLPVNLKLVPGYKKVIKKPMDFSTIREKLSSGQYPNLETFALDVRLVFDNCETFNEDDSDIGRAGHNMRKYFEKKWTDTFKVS

Row | SMILES | activity change, negative = inhibition | Potency
1 | CCC(=O)Nc1ccc(Nc2ccccc2)cc1 | inactive: -33.6% | –
2 | Cc1ccc(C)c(CN2C(=O)c3ccccc3S(=O)(=O)c3ccc(C(=O)NCc4ccccc4)cc32)c1 | – | inconclusive: 89.1 µM [inhibitor, single point]
3 | Cc1cccc(Nc2ncnc3c2cnn3Cc2ccccc2)c1 | – | inconclusive: 89.1 µM [inhibitor, single point]
4 | CCc1nn(CC(=O)N2CCN(c3cccc(C(F)(F)F)c3)CC2)c(=O)c2cccn12 | – | active: 70.8 µM
5 | O=C(NCc1ccco1)C(c1cccs1)N(Cc1ccccc1)C(=O)Cn1nnc2ccccc21 (stereo not drawn) | – | inconclusive: 50.1 µM [inhibitor, partial curve]
6 | O=C(O)c1ccc(Cl)c2c1C1C=CCC1C(c1ccccn1)N2 (stereo not drawn) | – | active: 25.1 µM
7 | CN(C)c1ccc(C(=O)/C=C/c2ccco2)cc1 | – | active: 50.1 µM
8 | CCOc1ccc2nc(SCC(=O)Nc3ccc4[nH]c(=O)[nH]c4c3)[nH]c2c1 | – | inconclusive: 70.8 µM [inhibitor, single point]
9 | CCc1ccccc1NC(=O)c1cc(=O)c2ccccc2o1 | inactive: -0.701% | –
10 | Cc1ccc(Cl)cc1Nc1nc(N2CCOCC2)nc(N2CCOCC2)n1 | – | inconclusive: 39.8 µM [inhibitor, single point]
11 | COc1ccc(Oc2nc(-c3ccccn3)ncc2OC)cc1 | – | active: 28.2 µM
12 | COc1ccc(CNc2oc(-c3ccc(COc4ccc(OC)cc4)o3)nc2C#N)cc1 | – | inconclusive: 8.91 µM [inhibitor, full curve, poor fit]
13 | CCOCCCn1c(=S)[nH]c2cc(C(=O)NCC(OC)OC)ccc2c1=O | – | inconclusive: 79.4 µM [inhibitor, single point]
14 | COc1cc(NC(=O)COC(=O)CNC(=O)C23CC4CC(CC(C4)C2)C3)cc(OC)c1 | – | inconclusive: 1.41 µM [inhibitor, full curve, poor fit]
15 | O=C(Cc1ccc([N+](=O)[O-])cc1)N/N=C/c1ccc([N+](=O)[O-])o1 | – | inconclusive: 79.4 µM [inhibitor, single point]
16 | O=C(Nc1nc(-c2ccccn2)cs1)c1ccc(Cl)s1 | – | active: 22.4 µM
17 | Cn1c(=O)c2sccc2n(Cc2cccc(Br)c2)c1=O | inactive: 10.8% | –
18 | COc1ccc(N(C(=O)c2cccnc2)S(=O)(=O)c2cc(OC)ccc2OC)cc1 | inactive: -15.3% | –
19 | Cc1oc2c(c(C)cc3oc(=O)c(CC(=O)NCc4ccc(F)cc4)c(C)c32)c1C | inactive: -10.5% | –
20 | COc1ccc(/C=C(\C#N)C(=O)C(C)(C)n2cncn2)cc1 | – | inconclusive: 89.1 µM [inhibitor, single point]
21 | NC(=O)CC(NC(=O)c1ccccc1)c1ccc(NC2CCCCCCC2)c([N+](=O)[O-])c1 (stereo not drawn) | – | inconclusive: 79.4 µM [inhibitor, single point]
22 | CC(C)OC(=O)n1c(=S)oc2ccccc21 | – | inconclusive: 89.1 µM [inhibitor, single point]
23 | CCN1C(=O)C(Cc2nc3ccccc3c(=O)n2-c2ccccc2)c2cc(Br)ccc21 (stereo not drawn) | – | inconclusive: 28.2 µM [inhibitor, full curve]
24 | O=C(CC1Sc2ccccc2NC1=O)Nc1cccc(C(=O)O)c1 (stereo not drawn) | – | active: 56.2 µM
25 | Cc1cc(OC(=O)c2ccc(S(=O)(=O)N(C)C)cc2)c([N+](=O)[O-])c(=O)[nH]1 | – | inconclusive: 50.1 µM [inhibitor, partial curve]

Row | SMILES | activity change, negative = inhibition | Potency
26 | CCOc1ccccc1NC(=O)Cn1c2ncccc2c(=O)n1-c1ccc(C)c(C)c1 | inactive: 5.16% | –
27 | COc1cccc(N2CCN(C(=O)c3ccc(CS(=O)c4ccc(Cl)cc4)o3)CC2)c1 (stereo not drawn) | – | inconclusive: 79.4 µM [inhibitor, single point]
28 | COc1cccc(-c2sc3ccc(OC)cc3c2-c2ccc(C(N)=O)cc2)c1 | inactive: 3.36% | –
29 | Cc1cc(Nc2ccc(F)cc2)nc(-n2nc(C)cc2C)n1 | – | inconclusive: 10 µM [inhibitor, full curve, poor fit]
30 | OC(COCc1ccco1)CN1CCN(c2ccccc2)CC1 (stereo not drawn) | – | active: 89.1 µM
31 | COC(=O)[C@@H]1CCCN1Cc1nc(Cc2ccc(OC)c(OC)c2)no1 | inactive: -19.4% | –
32 | N=C1S/C(=C\c2ccc(-c3ccccc3C(=O)O)o2)C(=O)N1c1ccc2c(c1)OCO2 | – | active: 20 µM
33 | Brc1ccc(CNc2cc3c(cc2Br)OCCO3)cc1 | – | active: 31.6 µM
34 | CCOC(=O)c1c(N2C(=O)CC(Sc3ccccc3C(=O)O)C2=O)sc2c1CCCC2 (stereo not drawn) | – | active: 50.1 µM
35 | O=C(OCCCC(=O)N1CCOCC1)c1ccccc1 | inactive: 0.317% | –
36 | Cc1ccc(C)c(N2CCN(CCCNC(=O)Nc3ccc(Cl)cc3)CC2)c1 | – | inconclusive: 44.7 µM [inhibitor, partial curve]
37 | CCC(=O)c1ccc(OCC(=O)OCC(=O)c2cc(C)n(C3CC3)c2C)cc1 | – | inconclusive: 50.1 µM [inhibitor, partial curve]
38 | O=C(c1ccccc1Cl)N1CCC(n2cccc2)CC1 | – | inconclusive: 79.4 µM [inhibitor, single point]
39 | O=C(O)c1ccn(Cn2cnc3ccccc32)n1 | – | inconclusive: 89.1 µM [inhibitor, single point]
40 | Cn1c(SCC(=O)c2ccccc2)nnc1-c1ccccn1 | – | active: 79.4 µM
41 | CCOC(=O)c1c(NC(=O)Cn2cnc3scc(-c4ccc(C)cc4)c3c2=O)sc(C)c1C | inactive: -9.93% | –
42 | COc1ccccc1N1CCN(CC(O)COc2ccc(C)cc2C(C)(C)C)CC1 (stereo not drawn) | – | active: 31.6 µM
43 | CCN(CC)CCNC(=O)Cn1nc(-c2ccccc2)c2ccccc2c1=O | inactive: 1.41% | –
44 | Fc1ccc(N/N=C/C=C/c2ccccc2)c(F)c1 | – | inconclusive: 44.7 µM [inhibitor, partial curve]
45 | O=C(Nc1ccc(CN2CCOCC2)cc1)c1cccc(-c2cc3ccccc3oc2=O)c1 | – | active: 79.4 µM
46 | CCc1cc2ccc(C)cc2nc1SCC(=O)NC1CCCC1 | inactive: -4.13% | –
47 | CN(Cc1ccccc1)C(=O)c1[nH]cnc1C(=O)NCc1ccccc1 | – | inconclusive: 70.8 µM [inhibitor, partial curve]
48 | C=C(C)CNC(=S)N/N=C/C1=CCC2CC1C2(C)C (stereo not drawn) | – | inconclusive: 44.7 µM [inhibitor, partial curve]
49 | O=C(Cc1csc(NC(=O)c2ccc(F)cc2)n1)NO | – | inconclusive: 89.1 µM [inhibitor, single point]
50 | COc1ccc(S(=O)(=O)Nc2c(C(=O)O)[nH]c3ccccc23)cc1OC | – | inconclusive: 70.8 µM [inhibitor, single point]

Row | SMILES | activity change, negative = inhibition | Potency
51 | CC(C)(C)[C@]1(O)CCN2C[C@H]3c4ccccc4CCc4cccc(c43)[C@@H]2C1 | – | inconclusive: 89.1 µM [inhibitor, single point]
52 | CCOC(=O)c1cnc(-n2nc(C)cc2C)nc1Nc1ccccc1OC | – | inconclusive: 2.51 µM [inhibitor, full curve, poor fit]
53 | O=C(c1ccc2c(Cl)c3c(nc2c1)CCCC3)N1CCN(c2ccccc2F)CC1 | inactive: -2.42% [at 57.1 µM] | –
54 | COc1ccc2oc(C(=O)Nc3nc4ccccc4[nH]3)c(C)c2c1 | inactive: -0.533% | –
55 | Cc1cc(N2CCN(c3ccc(C(F)(F)F)cc3[N+](=O)[O-])CC2)c2ccccc2n1 | – | active: 25.1 µM
56 | CCOc1ccccc1NC(=S)NCCCn1ccnc1 | – | inconclusive: 89.1 µM [inhibitor, partial curve]
57 | O=C(CCn1c(=S)[nH]c2ccccc2c1=O)NCCCN1CCCC1=O | – | inconclusive: 100 µM [inhibitor, single point]
58 | COc1ccc(/C=C2/CCc3ccccc3C2=O)cc1OC | – | inconclusive: 31.6 µM [inhibitor, partial curve]
59 | Cc1ccc(CNC(=O)C(C)n2ccc3cc(S(=O)(=O)N4CCCC4)ccc32)cc1 (stereo not drawn) | inactive: -10.9% | –
60 | O=C(CSc1nc2ccccc2n1Cc1c(F)cccc1Cl)N1CCN(c2ccc(F)cc2)CC1 | inactive: -1.29% | –
61 | CSc1nc(O)c(C(c2cccc([N+](=O)[O-])c2)c2c(O)nc(SC)[nH]c2=O)c(=O)[nH]1 | – | inconclusive: 89.1 µM [inhibitor, single point]
62 | CCC(=O)N(CCc1ccccc1C)Cc1cc2ccc(C)cc2[nH]c1=O | inactive: 9.42% | –
63 | CCCC(=O)Nc1ccc(C(=O)/C=C/c2ccc(SC)cc2)cc1 | inactive: -6.07% | –
64 | Cn1cccc1Cc1nnc(SCC(=O)Nc2ccccc2F)n1-c1ccc(F)cc1 | – | inconclusive: 44.7 µM [inhibitor, partial curve]
65 | CCc1ccc2nc(N3C(=O)C(O)=C(C(=O)c4ccco4)C3c3cccs3)sc2c1 (stereo not drawn) | – | active: 50.1 µM
66 | COCC(=O)N1c2nc(-c3ccco3)nn2C2(CCCCC2)[C@@H]2CCCC[C@@H]21 | – | inconclusive: 79.4 µM [inhibitor, single point]
67 | c1ccc2cc(OCCN3CCCC3)ccc2c1 | – | inconclusive: 56.2 µM [inhibitor, partial curve]
68 | O=c1[nH][nH]c(-c2ccccc2O)c1C(C[N+](=O)[O-])c1ccccc1 (stereo not drawn) | – | inconclusive: 79.4 µM [inhibitor, single point]
69 | CCNC(=O)CC1C(=O)N(c2ccc(F)cc2)C(=O)N1Cc1ccccn1 (stereo not drawn) | inactive: -3.52% | –
70 | O=C(NC(=S)N(CCO)Cc1ccccc1)c1cc(Br)ccc1Cl | – | inconclusive: 79.4 µM [inhibitor, single point]
71 | Cc1nc2c(c(=O)n1CCC1=CCCCC1)c1nc3ccccc3nc1n2/N=C/c1ccco1 | – | inconclusive: 79.4 µM [inhibitor, partial curve]
72 | O=C(CSc1ccc(-c2cccs2)nn1)NCc1ccccc1Cl | – | inconclusive: 79.4 µM [inhibitor, single point]
73 | O=C(NN1C(=O)/C(=C\c2ccc(O)c([N+](=O)[O-])c2)SC1=S)c1ccccc1Cl | – | active: 39.8 µM
